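1) Cells in 96-well plates. 2) Compound, 48 h, 5 concentrations. 3) Linear interpolation between surrounding doses. 4) Unreached endpoint = highest concentration. The concentration for 50% growth inhibition is given as GI50. TGI marks complete inhibition of growth.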

The assay has as its system NCI-H322M lung. The assay can be described thus: NCI tumour cell line growth inhibition, 48 h.

Take `CN(C)c1ccc(/C=N/Nc2nc(N/N=C/c3ccc(N(C)C)cc3)nc(N3CCCCC3)n2)cc1`: the GI50 was 2.87 µM and the TGI was more than 100 µM.
For `CC(=C(c1ccc(OCCN2CCCC2)cc1)c1ccc(OCCN2CCCC2)cc1)c1ccc(Cl)cc1` the same measures were 2.63 µM and 4.94 µM.
For `N#Cc1c(-c2cccs2)cc(-c2cnccn2)nc1SCC(=O)N/N=C/c1ccccc1` the same measures were 4.88 µM and 21 µM.

Values taken from PubChem BioAssay (NCI).
